Results taken from PubChem BioAssay AID624417 (National Center for Advancing Translational Sciences (NCATS), 2012).
Screen size: about 410,000 compounds; about 6,400 (1.6%) were called active. Inconclusive means that the source gave no clear call. Such entries were picked first, then a sample of the others. Calls follow the shape of the dose curve; as a rule, active = well fitted inhibition curve with a large enough effect; inconclusive = small, poorly fitted or top-dose-only effect; inactive = no such curve, though single readings can be large or run the other way. Where the call is inconclusive, the potency comes from a doubtful curve fit.

The compounds below were run against Glucagon-like peptide 1 receptor (Homo sapiens) (UniProt P43220) (assay: qHTS of GLP-1 Receptor Inverse Agonists (Inhibition Mode)). Settings: HEK293 GLP-1R CRE-luciferase, luminescence, 24 h, GLP-1R form is constitutively active; activity change, negative = inhibition: at 38.3 µM (top of the series) unless noted.
UniProt P43220, sequence (P43220 whole entry, looked up): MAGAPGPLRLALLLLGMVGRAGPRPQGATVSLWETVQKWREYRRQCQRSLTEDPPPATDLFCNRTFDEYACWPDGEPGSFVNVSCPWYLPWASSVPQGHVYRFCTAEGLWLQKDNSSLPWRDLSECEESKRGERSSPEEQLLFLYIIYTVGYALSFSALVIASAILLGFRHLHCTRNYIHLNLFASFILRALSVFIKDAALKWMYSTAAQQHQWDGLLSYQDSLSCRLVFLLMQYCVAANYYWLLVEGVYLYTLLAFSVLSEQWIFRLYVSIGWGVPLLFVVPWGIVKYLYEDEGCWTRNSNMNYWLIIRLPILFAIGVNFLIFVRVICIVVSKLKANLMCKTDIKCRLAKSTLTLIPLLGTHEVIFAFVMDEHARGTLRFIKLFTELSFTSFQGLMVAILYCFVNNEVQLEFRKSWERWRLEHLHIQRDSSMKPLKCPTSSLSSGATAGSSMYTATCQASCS
Procedure, shortened: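 HEK293 cells stably co-expressing a cAMP-responsive luciferase reporter and constitutively active GLP-1R were seeded, incubated 12 h, then exposed to compounds for 24 h at 37 C. Luminescence was read 12 min after detection reagent; inverse agonists lower signal.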
% is scaled to controls: 0 for no effect and ±100 for the full control effect; potency is read from the fitted curve at half-maximal effect; tags tell the direction and shape of the fitted curve.
Also: nearly all actives have a fitted effect of over 55% in size.

Potency, active:
CCCCCC[n+]1c(-c2ccc(Cl)cc2Cl)csc1Nc1ccccc1 10 µM

Potency, inconclusive:
O=C(N/N=C/c1ccc2c(c1)OCO2)c1cccc(NC(=O)c2ccccc2Cl)c1 10 µM [inhibitor, partial curve, poor fit]
CCc1ccc2c(c1)C(=O)C[C@]1(CCC[C@H](C)C1)O2 28.2 µM [inhibitor, single point]
COCc1ccc(CN2CCc3c([nH]c4ccccc34)C2CC(C)C)o1 (stereo unspecified) 8.91 µM [inhibitor, partial curve, poor fit]
Cc1ccc2oc(-c3ccccc3)c(C(=O)O)c(=O)c2c1 15.8 µM [inhibitor, single point]
Cc1ccnc(NC(=O)c2ccc(Cl)c(S(=O)(=O)N3CCCCC3)c2)c1 28.2 µM [inhibitor, single point]
N#C/C(C(=O)NCc1ccccc1)=C1\SC(CCO)C(=O)N1c1ccccc1 (stereo unspecified) 7.94 µM [inhibitor, partial curve, poor fit]
COCc1c(C(=O)NCC2COc3ccccc3O2)oc2ccccc12 (stereo unspecified) 11.2 µM [inhibitor, partial curve, poor fit]
CCOC(=O)C1=C[C@@H](C(C)(C)C)N(S(=O)(=O)c2ccc([N+](=O)[O-])cc2)[C@H]1c1ccccc1 10 µM [inhibitor, partial curve]
Cc1ccc(S(=O)(=O)NC2c3cccc4cccc(c34)C2Sc2ncccn2)cc1 (stereo unspecified) 11.2 µM [inhibitor, partial curve]
COc1ccc(-c2nn(-c3ccccc3C)cc2CNCCc2cnc[nH]2)cc1F 4.47 µM [inhibitor, partial curve]
COc1ccc(NC(=O)CN(C)C(=O)/C=C/c2cn(-c3ccccc3)nc2-c2cccs2)cc1 15.8 µM [inhibitor, partial curve, poor fit]
COc1cc(/C=N/OCC(=O)Nc2ccc(OC(F)F)cc2)ccc1OCc1ccccc1 14.1 µM [inhibitor, single point]
Cc1ccc(C2=NC(C(F)(F)F)(C(F)(F)F)c3c(n(-c4ccc(F)cc4)c(=O)[nH]c3=O)N2)cc1 3.16 µM [inhibitor, single point]
CC1CCC(C(C)C)C(OC(=O)C[n+]2cc(-c3ccc(Cl)cc3)n3c2CCCCC3)C1 (stereo unspecified) 10 µM [inhibitor, partial curve, poor fit]
CCN(CC)C(CNS(=O)(=O)c1ccc(Cl)cc1)c1ccccc1 (stereo unspecified) 5.01 µM [inhibitor, full curve]
COc1ccc(/C=N/NC(=O)C(=O)/C=C2\NC3(CCCC3)Cc3ccccc32)cc1 25.1 µM [inhibitor, single point]
CCCCCCCCN1C(=O)[C@H](CC(=O)NCc2ccccc2)C[C@@]2(C(=O)OCC)CCCC=C12 10 µM [inhibitor, partial curve, poor fit]
COc1cccc(/C=N/NC(=O)c2nnn(-c3nonc3N)c2-c2cccs2)c1 15.8 µM [inhibitor, single point]
Cc1ccc(-c2[nH]c3ccccc3c2SCCN)cc1 7.08 µM [inhibitor, partial curve, poor fit]
O=C(Nc1ccno1)Nc1ccc(Cl)cc1Cl 11.2 µM [inhibitor, single point]
Cc1ccc(C(=O)c2c3ccc(C(F)(F)F)cc3[n+]([O-])n2CCCN)cc1 31.6 µM [inhibitor, single point]
Cc1cc(Oc2cccc3c2S(=O)(=O)N(C2CCCC2)CC(COCc2ccccc2)O3)cc(C)c1C (stereo unspecified) 7.94 µM [inhibitor, partial curve, poor fit]
CCCCC#Cc1ccccc1CC(=O)Nc1ccccc1 8.91 µM [inhibitor, partial curve, poor fit]
COc1cc(C2c3cc4c(cc3OC(NNC(N)=S)C2C)OCO4)cc(OC)c1OC (stereo unspecified) 0.562 µM [inhibitor, full curve, poor fit]
Cc1ccc(C(=O)NC23CC4CC(CC(C4)C2)C3)c(Cl)c1 2.51 µM [inhibitor, full curve]
CC(=O)c1cc2c(s1)-c1cc(F)ccc1OC2 12.6 µM [inhibitor, single point]
Cc1c(Cl)cccc1NC(=O)c1nc(C)n(-c2cc(OC(C)C)c(Cl)cc2Cl)n1 12.6 µM [inhibitor, single point]
COc1ccccc1C(CC(=O)c1ccccc1)C(=O)c1ccccc1 (stereo unspecified) 11.2 µM [inhibitor, partial curve, poor fit]
Clc1ccccc1C1SCC2Nc3ccccc3CN21 (stereo unspecified) 14.1 µM [inhibitor, partial curve, poor fit]

Potency, inactive:
COC(=O)c1cn[nH]c1NC(=S)Nc1ccccc1C
Nc1c(C(=O)Nc2ccc(Cl)c(C(F)(F)F)c2)sc2nc(-c3ccncc3)ccc12
COc1cccc(CNC(=O)C2Cc3cc(S(=O)(=O)N4CCCCCC4)ccc3N2C(C)=O)c1 (stereo unspecified)
CC(=O)c1ccc(S(=O)(=O)N2CCN(c3nn(C)c(=O)n(C)c3=O)CC2)cc1
Cc1cccc(-c2ocnc2C(=O)Nc2ccccc2C(=O)N2CCCC2)c1
Cc1ccc(C(=O)NNC(=O)c2ccc(S(=O)(=O)N3CCCCC3)cc2)cc1
CCn1c(CNC(=O)c2ccc(OC)cc2)nnc1SCC(=O)Nc1cccc(C)c1C
O=[N+]([O-])c1ccc(/C=N\N2CCN(Cc3ccccc3Cl)CC2)cc1
COc1cccc(OC)c1OCCNC(C)(C)C
COc1ccc(NC2=NC(=S)N(c3ccc(C)cc3)C23CCCCC3)cc1

Activity change, negative = inhibition, inactive:
CCc1ccc(CNC(=O)Cn2nc(-c3ccccc3)ccc2=O)cc1 7.83% [at 0.307 µM]
